# Results: PubChem BioAssay (NCI)
# More than one record can exist for a structure, and the calls need not agree.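 Percent growth is the endpoint: 0 to 100 indicates growth inhibition (40 means 60% inhibition), 0 means no net growth, and negative values indicate cell death.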 A number of entries come with more than one value. This is not the full list of results. The source may hold further records. The calls were made as follows: active = growth percent below 10; inactive = the rest. These are repeated runs of one drug, at its own concentration, as given; one value stands for one run. Signs of the kind (2×) count equal records among those shown.
# Tested on: PC-3 prostate
# Assay: NCI-60 one-dose screen, 48 h (100 = growth as untreated, 0 = no growth, -100 = all killed)
structure (smiles),measurement,setting,value
COc1cccc2c1C(=O)c1c(O)c3c(c(O)c1C2=O)C[C@@](O)(C(=O)CO)C[C@@H]3OC1CC(N)C(O)C(C)O1 (stereo not given in full),growth,"0.25 µM, runs of 2016","inactive: 70.1, 65.9 (2×), 69.9, 71.2 (2×), 64.9, 60 (2×), 64.2 (2×), 61.7 (2×), 68.4, 66.6 (2×), 55.6, 64.5 (3×), 62.5, 50.1, 55.1, 59.8, 63.6, 56.3, 65.3 (2×), 58.5, 61.9, 61, 63.4, 61.5 (2×), 62.6, 62.1, 62, 61.8 (2×), 58.2, 67.8, 63.7, 69.5 (2×), 71.9, 72.2, 78.7, 65.1 (2×), 66.3 (2×), 52.9, 56.7, 65.2, 60.6, 64.4, 63.2, 69.2, 65.5, 67.9, 69.1, 65, 69.8 (2×), 67.7, 79.6, 79.4, 75.4, 59.2, 69.7, 70.7, 70.5 (2×), 71.5, 70.2, 70.9, 73.3, 73.2% (2×)"
same,growth,"0.25 µM, runs of 2017","inactive: 77.6, 74, 72.2, 70.1, 74.6, 70, 62.1 (3×), 63.6, 55.6, 58 (2×), 64.8 (2×), 60.6 (2×), 63.8, 59.8 (2×), 65.1 (2×), 62.5 (2×), 63.5, 58.4, 63.2 (2×), 60.8, 61.8, 64.4, 62.4 (2×), 68.2, 63.4, 62.6, 63.7, 65.3, 64, 61.9 (2×), 59.7 (2×), 62.3 (3×), 65.5, 65.4, 68.6, 72.1, 59.5, 59, 52.7, 58.2, 56, 62, 51, 57.6, 63.3, 57, 57.9, 61.7, 60, 70.4, 66.3, 69.4, 58.9, 55.8, 77.2, 75.7, 57.7, 60.7, 55%"
same,growth,"0.25 µM, runs of 2018","inactive: 64.7 (2×), 63.7 (2×), 58.5, 64.6, 58.1, 58.2, 60.1, 59.7, 63.3, 56.9, 64.4, 65.1 (2×), 66.6, 62.1 (4×), 61.2, 62, 66.4, 64, 58.9, 61.6, 62.3, 60 (2×), 58.4, 61.5 (2×), 60.3, 59.6, 53.6, 55.4, 68.2, 71.5, 59.5, 64.5, 63.8, 65.9, 62.6, 56.7, 40.5, 49.7%"
same,growth,"0.25 µM, runs of 2019","inactive: 51.3, 46.8, 51.1 (2×), 43.5, 49.5, 52.9, 49.9, 56.6, 58.2, 52.8 (2×), 54.7, 51.8 (2×), 56.5, 55.3 (2×), 58.4 (2×), 52.4, 58, 57.8, 59.4, 61.3, 61.2 (2×), 55.4, 66.3, 63.1, 60.9, 60.8, 56.8, 54.6 (2×), 54.8, 55.2, 53.8, 55.7, 53.2, 56.2, 57, 57.4 (2×), 52.2 (2×), 59.6, 57.3, 58.1, 50.8%"
same,growth,"0.25 µM, runs of 2020","inactive: 53.3, 50.1, 59, 60.3 (2×), 57.3, 62.5, 63.5, 59.4, 59.3 (2×), 57.7 (2×), 50.6, 59.8, 49.3, 57.9, 72.9, 62.1, 54.7, 65.7, 58.4, 64.4%"
same,growth,"0.25 µM, runs of 2021","inactive: 64.7, 60.2, 67.2, 63.4 (2×), 59.8, 65.5, 54.4, 55.9, 58.1 (2×), 55.6, 61.5 (2×), 61.8, 63.8, 67.7, 63.6, 60, 58.5, 58, 55.7, 58.8, 54.7, 55.5, 56.2, 49.9, 56.7, 57.3, 70.8, 68.4, 69.4, 66.2, 71.9, 56.3, 59.7, 63.5, 59.4, 58.7, 64.9, 67.6, 50.4, 57.9, 49.7, 50.1, 38.4, 52.4, 54, 73, 68.6%"
same,growth,"0.25 µM, runs of 2022","inactive: 17.4, 19.7, 60.8, 70.9, 19.5, 57.9 (2×), 39.4, 54.8, 52, 53.5, 59, 64.2, 53.6, 61.7, 56.9, 56, 47.9, 71.9, 79.6 (2×), 56.1, 71.3, 56.3, 56.2 (2×), 54.6, 57%"
same,growth,"25 µM, runs of 1993","active: -52.8 (2×), -46.9, -64.1, -38.3, -73, -56, -63.7, -69.9, -58.2, -60.4, -74.3, -55.6, -82, -61.7, -67.3, -57, -52.2, -78.2, -40.9, -49.7, -60.8, -50.5, -52, -60.6, -40.3, -48.1, -41.3, 2.8, -59.1, -45.8, -55.8 (2×), -11.7, -49.8, -62.4, -53.1, -4.59, -75.5, -9.6, -60.7, -34.6, -54.3, -59.9, -81, -90%"
same,growth,"25 µM, runs of 1994","active: -27, -81.3, -42.7, -69.1, -69.9, -10.1, -65.7, -53.2, -72, -56.2, -56 (2×), -33.4, -49.8, -56.9, -39.2, -52.1, -40.6, -27.3, 0.583, -48.8, -24, -54.9, -49.3, -21.9, -18.2, -35.6, -15.2, -55, -18.5, -47.8, -46.7% and inactive: 99.1%, 24.9%"
same,growth,"25 µM, runs of 1995","active: -30.6, -21.1, -49.1, -40.3, -82.5, -72.8, -57, -44.6, -28.1, -57.1, -55.5, -48.2 (2×), -44, -19.5, -50.8, -56.7, -74, -34, -54.4, -41.6, -78.5, -32.3, -31.9, -49.3, -25.8, -20, -65.7, -18, -60, -49, -63.5, -52.4, -52.5, -53 (2×), -61.8, -43.7, -81.9, -56, -47.7%"
same,growth,"25 µM, runs of 1996","active: -28.7, -46, -49.8, -21.5, -28.9, -37.2, -33.2, -52.3 (2×), -43, -64.8, -62.6, -7.4, 8.08, -51.4, -67.7, -26.8, -55.8, -61.7, -52.6, -28.6, -6.87, -44.8 (2×), -56.2, -52.8, -60.9, -41.9, -2.42, -20, -35.5, -60.2, -38.7, -17.8, -49.7, -64.1, -65, -54.4, -59.9, -78.6, -70.9, -57.4 (2×), -59.3 (2×), -62.9, -82.7, -66.2, -60.8, -77.1, -50, -13.1, -78.1, -63.3, 3.8, -48.9% and inactive: 90.8%, 14%"
same,growth,"25 µM, runs of 1997","active: -37.6, 0.552, -33.5, -26.6, -34.2, -41.9, -11.3, -39.4, -56.8, -31.5, -54.1, -28.8, -36.4, -44.2, -37.2, -61.7, -34.7, -25.3, -68.9, -44.9, -59.7, -45.7, -66.5, -51.9, -27.1, -26.2, -36.3, -32.9, 3.15, 4.12, -3.83, -35.2, -11.9, -6.83, -26.3, -22.7, -17.2, 2.24, -11.4, -9.7, 0.195, -3.1, 2.18, 4.6% and inactive: 33.4%"
same,growth,"25 µM, runs of 1998","active: -40.2, -48.6, 4.74, -24.8, -16.9, -39.1, -26.9, -73.7, -35, -23.5, -24, -28.4, -2.8, -39.6, 8, -49, -42.1, -24.2, -26.2, -45, -4.04, -17.8, -35.8, -0.472% and inactive: 10.5%, 14.1%"
same,growth,"25 µM, runs of 1999","active: 3.79, -8.61, -18.2, -49.1, -38.3, -100, -73.7, -69.8, 0.428, -16, -43.8, 1.3, -72, -81.7, -75.8, 0.678, -89.6%"
same,growth,"25 µM, runs of 2000","active: -100% (2×), -40.5%, -78.9%"
